Positions of bridges follow the written chain, without caps; N, C: chain ends. No end group written: not given here. *: point of attachment. FITC = O=C1OC2(c3ccc(O)cc3Oc3cc(O)ccc32)c2ccc(NC(=S)*)cc21; Ahx = NCCCCCC(=O)O
Molecular target: T1, peptide P1 (disulfide 1-9 (inferred))
T1 chain: {FITC-Ahx}-CKKNSPTLC
Assay: fluorescence binding assay of FITC-P1 to immunoprecipitated HA-GPR55

Kd: ~20 µM
B1: GPR55 (protein)
chain: MSQQNTSGDCLFDGVNELMKTLQFAVHIPTFVLGLLLNLLAIHGFSTFLKNRWPDYAATSIYMINLAVFDLLLVLSLPFKMVLSQVQSPFPSLCTLVECLYFVSMYGSVFTICFISMDRFLAIRYPLLVSHLRSPRKIFGICCTIWVLVWTGSIPIYSFHGKVEKYMCFHNMSDDTWSAKVFFPLEVFGFLLPMGIMGFCCSRSIHILLGRRDHTQDWVQQKACIYSIAASLAVFVVSFLPVHLGFFLQFLVRNSFIVECRAKQSISFFLQLSMCFSNVNCCLDVFCYYFVIKEFRMNIRAHRPSRVQLVLQDTTISRG
